Results from patent US20180221306A1, “PHARMACEUTICAL COMPOSITIONS OF 5-HYDROXY-2-METHYLNAPHTHALENE-1,4-DIONE” (PellFiCure Pharmaceuticals, Inc., priority 2016, published 2018).

Key:
[1] = Method: Forced degradation studies were performed to determine the stability of Compound I in various formulations. Compound I formulations were prepared at approximately 5 mg/g (˜4.6 mg/mL assuming a density of 0.92 g/mL) in various solvents, as listed in Tables 7 thorough 10. The formulations were placed in stability chambers and subjected to conditions of 25° C./60% relative humidity (RH) and 40° C./75% relative humidity (RH). Samples were pulled from the formulations at 3 and 10 days. At each time point, samples were pulled from the stability chambers, diluted 20× to the nominal concentration using positive displacement pipettes and 50/50 ethanol/hexane as the diluent, and analyzed via HPLC for purity. Stability was very good in most organic solvents but not in Tween-20 or Tween-80 surfactant formulations in which 50% or more Compound I was lost. The formulations of Compound I in PEG were 50% stable at 40° C./75%, whereas its stability in Carrier A was excellent.
[2] = remark: listed apart in the source
Method: Forced degradation studies were performed to determine the stability of Compound I in various aqueous formulations. Compound I formulations were prepared at approximately 5 mg/g (˜4.6 mg/mL assuming a density of 0.92 g/mL) in various aqueous media, as listed in Tables 5 and 6. The aqueous formulations were placed in stability chambers and subjected to conditions of 25° C./60% relative humidity (RH) and 40° C./75% relative humidity (RH). Samples were pulled from the formulations at 3 and 10 days. At each time point, samples were pulled from the stability chambers, diluted 20× to the nominal concentration using positive displacement pipettes and 50/50 ethanol/hexane as the diluent, and analyzed via HPLC for purity. Within the physiological pH range (around pH 7), less than 10% of initial Compound I remained in the solution after 1 week.

CC1=CC(=O)c2c(O)cccc2C1=O [Compound I, 5-hydroxy-2-methylnaphthalene-1,4-dione]
Degradation in the Carrier A formulations [1]: no significant degradation
Stability in Carrier A [1]: excellent
Stability in most organic solvents [1]: very good
Stability in aqueous conditions [2]: stable in aqueous acid, but not in basic or neutral aqueous conditions
